From PMC4336329 (PLoS ONE, 2015) come the findings set out here.

Out of some 310,000 compounds screened, about 2,200 (0.71%) showed an effect of 50% or more. Effects have a minus sign here. Some of the results follow.

For this assay, the target named is human ether-à-go-go-related gene (hERG) potassium channel (human, UniProt Q12809). The experiment in a line: primary screen, population patch clamp on CHO cells stably expressing hERG.
Sequence of human ether-à-go-go-related gene (hERG) potassium channel (Q12809 whole entry, looked up): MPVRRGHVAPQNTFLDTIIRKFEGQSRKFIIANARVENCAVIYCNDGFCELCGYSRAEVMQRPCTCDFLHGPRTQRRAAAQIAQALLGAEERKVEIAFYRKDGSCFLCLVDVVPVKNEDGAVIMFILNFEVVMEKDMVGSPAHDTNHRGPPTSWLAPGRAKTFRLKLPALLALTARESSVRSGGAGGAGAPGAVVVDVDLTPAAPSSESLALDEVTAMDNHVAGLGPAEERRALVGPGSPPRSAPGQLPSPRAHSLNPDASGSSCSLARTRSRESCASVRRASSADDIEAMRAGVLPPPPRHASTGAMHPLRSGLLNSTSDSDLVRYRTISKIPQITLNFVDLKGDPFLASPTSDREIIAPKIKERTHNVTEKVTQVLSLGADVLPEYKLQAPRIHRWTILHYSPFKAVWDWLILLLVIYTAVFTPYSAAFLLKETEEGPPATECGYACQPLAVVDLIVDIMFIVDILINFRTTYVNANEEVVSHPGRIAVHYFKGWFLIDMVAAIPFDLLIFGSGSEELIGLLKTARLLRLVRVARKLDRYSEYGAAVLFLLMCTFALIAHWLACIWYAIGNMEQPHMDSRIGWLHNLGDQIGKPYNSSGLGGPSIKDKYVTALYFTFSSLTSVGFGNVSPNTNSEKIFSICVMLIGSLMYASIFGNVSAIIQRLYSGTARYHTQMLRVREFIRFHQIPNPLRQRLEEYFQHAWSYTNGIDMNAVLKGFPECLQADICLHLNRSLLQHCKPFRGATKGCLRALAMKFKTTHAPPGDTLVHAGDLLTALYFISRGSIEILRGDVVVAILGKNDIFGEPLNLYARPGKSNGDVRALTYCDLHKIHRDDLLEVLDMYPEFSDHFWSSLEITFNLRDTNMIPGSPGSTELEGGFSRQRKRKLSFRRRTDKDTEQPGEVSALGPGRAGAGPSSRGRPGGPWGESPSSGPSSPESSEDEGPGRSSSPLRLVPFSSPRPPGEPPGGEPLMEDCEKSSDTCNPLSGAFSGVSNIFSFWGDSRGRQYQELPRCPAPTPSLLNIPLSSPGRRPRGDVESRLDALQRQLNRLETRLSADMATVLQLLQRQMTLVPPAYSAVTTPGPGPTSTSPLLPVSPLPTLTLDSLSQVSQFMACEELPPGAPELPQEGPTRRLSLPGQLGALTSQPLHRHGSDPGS
With `CCOc1ccc(/C=N/OCC(=O)Nc2ccc3c(c2)OCO3)cc1`, the “hERG current change (%, negative = inhibition) at 1uM” value is -5.35%. For the molecule `O=c1c2cc([N+](=O)[O-])ccc2nc2n1CCC2`, the “hERG current change (%, negative = inhibition) at 1uM” value is recorded as 2.27%. As for `Cc1cnc(C(=O)OCC(=O)NCCc2ccccc2)cn1`, the figure is -13.3%; as for `Cc1cc(C)c(NC(=O)CNC(=O)COC(=O)CN2C(=O)NC3(CCCC3)C2=O)c(C)c1`, 15.2%. Consider `Cc1ccc(OCCCNCCO)c(Br)c1.O=C(O)C(=O)O`, for which the “hERG current change (%, negative = inhibition) at 1uM” value is 5.93%.

Consider `O=C(CNC(=O)c1ccc2c(c1)OCO2)N/N=C/c1cc(Br)ccc1O`, for which the “hERG current change (%, negative = inhibition) at 1uM” value is 14.6%. Then `CC(=O)Nc1ccc(S(=O)(=O)Nc2ccc(=O)n(Cc3ccc(Cl)c(Cl)c3)c2)cc1`, with -12.7%; and `Cc1cc(C=O)c(C)n1-c1ccc(NC2CCCCC2)c([N+](=O)[O-])c1`, with 21.1%; and `Cc1cccc2nc3c(nc12)-c1ccccc1C3=O`, with 12.1%. For `Cc1ccc(N(Cc2ccccc2)C(=O)c2cc(S(=O)(=O)N3CCOCC3)ccc2N2CCCC2)cc1`, the “hERG current change (%, negative = inhibition) at 1uM” value is listed as 8.05%. Regarding `CCCOc1ccc(N/C=C/C(=O)c2ccc(OC)c(OC)c2)cc1`, the “hERG current change (%, negative = inhibition) at 1uM” value was determined as 3.29%. As for `CCOC(=O)C1CCN(C(=O)c2ccc(Cl)c(S(=O)(=O)N3CCCC3)c2)CC1`, the figure is -5.94%.

Take `CC(C)CCCN1C(Nc2ccccc2)=NC[C@@H]1C`: the “hERG current change (%, negative = inhibition) at 1uM” value is given as -0.21%.

As for `CCOc1cccc(C(=O)Nc2cc(-c3nn4c(C)nnc4s3)ccc2C)c1`, the “hERG current change (%, negative = inhibition) at 1uM” value is -7.45%.

As to `N#Cc1ccsc1NC(=O)CN1CCCCC1`, the “hERG current change (%, negative = inhibition) at 1uM” value worked out at 7.65%.

As for `COc1cc(O)c2c(c1)OC(c1ccc(O)cc1)CC2=O` (stereo not drawn), the “hERG current change (%, negative = inhibition) at 1uM” value is -4.82%. Take `CCOc1ccc(OCCOCCN2CCCC2)cc1.O=C(O)C(=O)O`: the “hERG current change (%, negative = inhibition) at 1uM” value was 9.53%. In the case of `O=C(CN1C(=O)S/C(=C/c2ccncc2)C1=O)N1CCOCC1`, the “hERG current change (%, negative = inhibition) at 1uM” value is reported as -6.01%. For the molecule `C=Cc1ccc(Cn2nc(-c3ccccc3)ccc2=O)cc1`, the “hERG current change (%, negative = inhibition) at 1uM” value turned out to be 11%. Then `CC(C)CC(=O)Nc1cc2c3c(c1)C(C)C(=O)N3CCC2` (stereo not drawn), with 24.5%; and `CCOc1cc(CNc2cccc3ccccc23)cc(Br)c1OCC(=O)NC(C)(C)C`, with 3.55%; and `COC(=O)c1sccc1NC(=O)c1ccc(OC)cc1`, with 13.2%. As for `O=C(CSC1CC(=O)N(CC(c2ccccc2)c2ccccc2)C1=O)Nc1ccc(Cl)cc1` (stereo not drawn), the figure is 7.24%; as for `COc1ccc(CCC(=O)NNC(=O)c2ccc(F)cc2)cc1`, 11%. As for `COc1ccc(NC(=O)CC2C(=O)N(c3cccc(OC)c3)C(=O)N2C2CCCCC2)cc1` (stereo not drawn), the figure is 14.6%; as for `O=C(NC(=S)Nc1cccc(O)c1)c1cncc(Br)c1`, 10.9%; as for `O=C(COc1ccc2ccccc2c1)NNC(=O)Cc1cccc2ccccc12`, 0.715%. As for `O=C(NCCc1ccc(Cl)cc1)c1ccc2c(c1)OCO2`, the “hERG current change (%, negative = inhibition) at 1uM” value is -0.947%. Then `CCOc1ccc(NC(=O)CSc2nnc(Cn3cnc([N+](=O)[O-])n3)n2CC)cc1`, with 8.08%; and `CN(C)S(=O)(=O)c1cccc(NC(=O)Cc2ccc(Cl)cc2)c1`, with 0.235%.

Regarding `O=C(CNc1cccc([N+](=O)[O-])c1)N/N=C/c1ccc([N+](=O)[O-])o1`, the “hERG current change (%, negative = inhibition) at 1uM” value came out at 2.54%. Take `COc1ccc(OCCCC(=O)ON=C(N)c2ccccc2Cl)cc1`: the “hERG current change (%, negative = inhibition) at 1uM” value amounted to 8.19%. Then `CN(C)CCCn1cnc2c1c(=O)[nH]c(=O)n2Cc1ccccc1.Cl`, with 11.5%. Then `O=C(O)CC1(CC(=O)Nc2ccc(F)c(Cl)c2)CCCCC1`, with 9.41%. Turning to `CC(OC(=O)c1ccc(NC(=O)CC#N)cc1)C(=O)NCCC1=CCCCC1` (stereo not drawn), the “hERG current change (%, negative = inhibition) at 1uM” value turned out to be 13%. Take `COc1ccc(S(=O)(=O)Nc2ccccc2C(=O)NCc2cccnc2)cc1`: the “hERG current change (%, negative = inhibition) at 1uM” value worked out at 12.1%.

In the case of `CCc1ccc(N(C(=O)CNC(=O)c2ccco2)C(C(=O)NC2CCCC2)c2cccnc2)cc1` (stereo not drawn), the “hERG current change (%, negative = inhibition) at 1uM” value is listed as 14.4%. Then `O=C(c1ccc(Cl)c(Cl)c1)N1CCN(c2ccccn2)CC1`, with 1.45%. As for `O=C(O)c1nn(-c2ccccc2)nc1-c1nn(-c2ccccc2)nc1C(=O)O`, the “hERG current change (%, negative = inhibition) at 1uM” value is 12.5%. Turning to `COCCNC(=O)c1onc(CSc2cccc(OC)c2)c1C(=O)NCCOC`, the “hERG current change (%, negative = inhibition) at 1uM” value is 2.62%.

Take `COc1cc(OC)cc(C(=O)NNC(=O)Cc2ccc(OC)c(S(=O)(=O)N3CCOCC3)c2)c1`: the “hERG current change (%, negative = inhibition) at 1uM” value amounted to 7.41%. As for `COCc1nnc(NC(=O)c2ccc(S(=O)(=O)N(C)C3CCCCC3)cc2)o1`, the figure is 6.49%; as for `CCOc1cc(N2CCOCC2)c(OCC)cc1NC(=O)c1ccc(OC)cc1`, 9.63%; as for `Cc1ccnn1CC(=O)N/N=C/c1c[nH]c2ccccc12`, 8.86%. As for `Nc1ccc2nc3c(=O)[nH]c(=S)[nH]c3nc2c1`, the figure is 14.7%; as for `CCOP(=O)(OCC)C(NC(=O)C(F)(F)F)c1ccccc1` (stereo not drawn), 3.32%. Then `COc1ccc(C(=O)NCCS(=O)(=O)N2CCc3ccccc3C2)cc1OC`, with 9.04%.

For `COC(=O)C1C2C=CC3(CN(Cc4cccs4)C(=O)C13)O2` (stereo not drawn), the “hERG current change (%, negative = inhibition) at 1uM” value is 4.13%. As for `O=c1cc(-c2ccccc2)oc2cc(OCc3ccccc3)cc(O)c12`, the figure is 15.5%; as for `CCCc1cc(C(N)=O)c(NC(=O)C2CCCO2)s1` (stereo not drawn), -12%.

For the molecule `CC(=O)Oc1ccccc1C1C[C@]2(C)CC(=O)NC2N1C(C)=O` (stereo partly drawn), the “hERG current change (%, negative = inhibition) at 1uM” value amounted to 15.9%.

Turning to `O=C(O)c1ccccc1-c1ccc(/C=C2\SC(=O)N(c3ccccc3)C2=O)o1`, the “hERG current change (%, negative = inhibition) at 1uM” value is 11.3%. Turning to `CCc1ccc(CN2CCC(n3nccc3NC(=O)c3ccccc3)CC2)o1`, the “hERG current change (%, negative = inhibition) at 1uM” value was -6.11%.

Regarding `Cc1ccc(C(=O)CCC(=O)N2CCC(C(N)=O)CC2)cc1`, the “hERG current change (%, negative = inhibition) at 1uM” value is 10.5%. As for `CCc1nnc(NC(=O)CSc2nnc(CSc3nc(C)cc(C)n3)o2)s1`, the figure is 10.6%; as for `CN1C(N)=NC(=O)/C1=C/c1ccc(F)cc1`, 13.8%. As for `COC(=O)Cc1ccc(NC(=O)c2ccc3c(c2)C(=O)N(CC2CCCO2)C3=O)cc1` (stereo not drawn), the figure is -0.497%.
